Results as given in US11246910B2, “Methods of treating immunological disorders using immunosuppressive compositions” (Singapore Health Services Pte Ltd, priority 2016, dated 2022).

B1: CCL8: MSC-derived protein CCL8 (MCP-3) (protein, UniProt P80075 24-99, looked up)
C-C motif chemokine 8: QPDSVSIPITCCFNVINRKIPIQRLESYTRITNIQCPKEAVIFKTKRGKEVCADPKERWVRDSMKHLDQIFQNLKP
B2: OPG: upregulated MSC-derived protein OPG (protein, UniProt O00300 22-401, looked up)
Tumor necrosis factor …: ETFPPKYLHYDEETSHQLLCDKCPPGTYLKQHCTAKWKTVCAPCPDHYYTDSWHTSDECLYCSPVCKELQYVKQECNRTHNRVCECKEGRYLEIEFCLKHRSCPPGFGVVQAGTPERNTVCKRCPDGFFSNETSSKAPCRKHTNCSVFGLLLTQKGNATHDNICSGNSESTQKCGIDVTLCEEAFFRFAVPTKFTPNWLSVLVDNLPGTKVNAESVERIKRQHSSQEQTFQLLKLWKHQNKDQDIVKKIIQDIDLCENSVQRHIGHANLTFEQLRSLMESLPGKKVGAEDIEKTIKACKPSDQILKLLSLWRIKNGDQDTLKGLMHALKHSKTYHFPKTVTQSLKKTIRFLHSFTMYKLYQKLFLEMIGNQVQSVKISCL
B3: IL-10: control molecule IL-10 (protein, UniProt P22301 19-178, looked up)
Interleukin-10: SPGQGTQSENSCTHFPGNLPNMLRDLRDAFSRVKTFFQMKDQLDNLLLKESLLEDFKGYLGCQALSEMIQFYLEEVMPQAENQDPDIKAHVNSLGENLKTLRLRLRRCHRFLPCENKSKAVEQVKNAFNKLQEKGIYKAMSEFDIFINYIEAYMTMKIRN

Legend:
[1] = tested on: DBA/1J mice with CIA; assay: Collagen-induced arthritis (CIA) mouse model; format: in vivo; conditions: treatment started on mice with mild arthritis (FIG. 21A)
Protocol: Arthritis was induced in 8 to 10 week-old DBA/1J mice following immunization with collagen and complete Freund's adjuvant (CFA) (Chondrex, USA). Complete Freund's adjuvant was prepared by mixing heat-inactivated mycobacterial strain H37RA in incomplete Freund's adjuvant (4 mg/mi). Lyophilized bovine type II collagen (Chondrex, USA) was dissolved overnight in acetic acid at 2 mg/ml. Complete Freund's adjuvant and collagen were mixed at a ratio of 1:1 to form an emulsion. 100 μg of collagen, which was then injected intradermally at the base of the tail. Mice were scored for arthritis weekly from day 30 after immunization. 50 ng/ml of CXCL5 was given twice/week to CIA mice for 3 consecutive weeks, to around day 40 to 50 post-induction, when mice started to show the arthritis symptoms. Mice treated with dPBS, bone marrow-derived mesenchymal stem cells (BM-MSCs; 5-10×10^6 cells/kg, single injection) and Prednisolone (Pred) (1 mg/kg/day for first 10 days, 0.5 mg/kg/day for the second 10 days) were used as positive and standard controls, respectively. Injection volume was normalized to the body weight of the mice. Mice were monitored for another 3 weeks post-treatment and then sacrificed for further analysis. Peripheral blood (PB) was collected on day 15 and day 42 post-treatment. Isolated blood cells and plasma were used for flow cytometry analysis and Luminex assay. […]

[2] = tested on: two HLA-mismatched UCB-MNCs; assay: Mixed lymphocyte reaction (MLR), cell-mediated cytotoxicity by LDH detection (in vitro GVHD model); format: cell-based, human; conditions: lowest concentration giving maximum repression of cytotoxicity in MLR (FIG. 3)
Protocol: MLR served as an in vitro GVHD model and was initiated by co-culturing two HLA-mismatched UCB-MNCs at 15:1 effector/target (E/T) ratios in […] medium (Stem Cell Technologies) for 20 hours in 37° C., 5% CO2 incubator. The mixed lymphocytes (ML) were treated with BM-MSCs by co-culture without transwell inserts (i.e. physical direct contact) or with transwell inserts (i.e. indirect bidirectional regulation via the two secretomes) or with BM-MSC-conditional medium. Transwell inserts were placed at 0.5 mm and 0.9 mm above the well bottom, and the 1-day old BM-MSC culture medium was used as conditional medium (1d-CM). Untreated MLR was used as a negative control to set the cell-mediated cytotoxicity baseline of the MLR. The cell-mediated cytotoxicity was measured by lactate dehydrogenase (LDH) cytotoxicity detection kit (Roche). Following the kit instruction, the detection plate was incubated in the dark for 20 minutes at room temperature, and absorbance was measured at 490 nm with 650 nm as reference wavelength using Benchmark Plus microplate spectrophotometer (Bio-Rad).
All the proteins and antibodies were purchased from Peprotech. For each molecule, the lowest working concentration that caused the maximum repression of cytotoxicity by MLR was used for further analysis. In order to determine the optimal combination of interested cytokines, the twelve molecules were arranged in a 2^12 fractional FD table (Table 3). There were twelve factors with two levels. Level-1 meant without addition of this interested molecule, level-2 meant addition of this interested molecule with optimal working concentration. Condition-1 without addition of any interested molecules served as negative control; Condition-16 with addition of full panel of interested molecules and MLR laid on MSCs served as positive control respectively.
Based on the maximal extend attenuating cell-mediated cytotoxicity, another 2^7 factorial FD (Table 4) was derived from Condition-6 in 2^12 fractional FD, which involved IL-10, OPG, CXCL5, CXCL6, CCL20 anti-CCL1 and anti-CCL24.
Similarly, a 2^4 full FD (Table 5) was further derived from Condition-6 in 2^7 fractional FD, which involved OPG, CXCL5, anti-CCL1 and anti-CCL24.

[3] = tested on: DBA/2J mice with bleomycin-induced skin fibrosis; assay: Bleomycin-induced scleroderma (systemic sclerosis) mouse model; format: in vivo; conditions: after 3-week treatment (FIG. 22A)
Protocol: Skin fibrosis was induced in 6 to 8-week-old DBA/2J mice by subcutaneous injection of bleomycin (0.5 mg/mi) into defined areas of 1 cm^2 on the lower back every other day, for 21 days. After a 3-week bleomycin challenge, another 3-week treatment was followed. 50 ng/ml of CXCL5 was given twice/week for 3 consecutive weeks. Mice treated with dPBS, bone marrow-derived mesenchymal stem cells (BM-MSCs; 5-10×10^6 cells/kg, single injection) and Prednisolone (Pred) (1 mg/kg/day for first 10 days, 0.5 mg/kg/day for the second 10 days) were used as positive and standard controls. Mice were sacrificed on day 21 post-treatment and the injected skin and peripheral blood were processed for further analysis.
Lesioned skin areas were excised, fixed in 10% formalin, and embedded in paraffin. Sections (5 μm thick) were stained with hematoxylin & eosin (H&E). The dermal thickness was analyzed at 100-fold magnification by measuring the distance between the epidermal-dermal junction and the dermal-subcutaneous fat junction at four sites from the lesioned skin of each mouse. Dermal leukocyte infiltration was counted on randomly-taken photos with High Power Field (HPF) (400×). Five photos were taken for each mouse. The average cell number of these five photos was used for counting the leukocyte infiltration. Two independent examiners performed the evaluation.

[4] = tested on: C57BL/6 (B6) mice with DAH; assay: Pristane-induced diffuse alveolar haemorrhage (DAH) mouse model; format: in vivo; conditions: for effector cells in lung, BALF and blood: FIGS. 18C, 18D; for prevalence of moderate to severe diffuse alveolar haemorrhage: day 14 post pristane (FIG. 18A)

| Molecule | optimal in vitro working concentration [2] | other results |
| --- | --- | --- |
| CN(Cc1cnc2nc(N)nc(N)c2n1)c1ccc(C(=O)N[C@@H](CCC(=O)O)C(=O)O)cc1 [MTX, methotrexate, reference compound] | – | disease activity index (DAI) [1]: 11.5±2.8 |
| CCCCC[C@H](O)/C=C/[C@H]1[C@H](O)CC(=O)[C@@H]1C/C=C\CCCC(=O)O [PGE2, prostaglandin E2, reference compound] | 2 µM | – |
| C[C@]12C=CC(=O)C=C1CC[C@@H]1[C@@H]2[C@@H](O)C[C@@]2(C)[C@H]1CC[C@]2(O)C(=O)CO [Prednisolone, reference compound] | – | skin thickness [3]: 309.0±95.3 μm; effector cells in lung, BALF and blood [4]: reduction in the accumulation of macrophages in bronchoalveolar lavage fluid; prevalence of moderate to severe diffuse alveolar haemorrhage [4]: 76.5% |
| CCL7: MSC-derived protein CCL7 (MCP-2) | 50 ng/mL | – |
| CCL20: MSC-derived protein CCL20 (MIP-3α) | 50 ng/mL | – |
| CXCL5: epithelial-derived neutrophil-activating protein 78, a CXC chemokine; human source | – | effector cells in lung, BALF and blood [4]: suppressing pulmonary neutrophils infiltration; prevalence of moderate to severe diffuse alveolar haemorrhage [4]: 50.0% |
| CXCL6: MSC-derived protein CXCL6 (GCP-2) | 10 ng/mL | – |
| B1 | 10 ng/mL | – |
| B2 | 10 ng/mL | – |
| B3 | 10 ng/mL | – |
